{"source": "PubChem BioAssay AID1476", "about": "(National Center for Advancing Translational Sciences (NCATS), 2009)", "note": "Among all 200,000 compounds or so, about 4,500 (2.2%) were called active. The shares of active, inactive and inconclusive entries below differ from those in the screen. The call rests on the fitted dose curve; in most records, active means well fitted inhibition curve with a large enough effect; inconclusive means small, poorly fitted or top-dose-only effect, or effect the other way; inactive means flat fitted curve, though single readings scatter. Potencies of inconclusive entries are doubtful fits and often do not repeat. Potency means the concentration at half of the fitted maximal effect; tags describe the fitted curve by direction and shape.", "data": [{"molecular_target": "Cruzipain (Trypanosoma cruzi) (UniProt P25779)", "sequence (P25779 whole entry, looked up)": "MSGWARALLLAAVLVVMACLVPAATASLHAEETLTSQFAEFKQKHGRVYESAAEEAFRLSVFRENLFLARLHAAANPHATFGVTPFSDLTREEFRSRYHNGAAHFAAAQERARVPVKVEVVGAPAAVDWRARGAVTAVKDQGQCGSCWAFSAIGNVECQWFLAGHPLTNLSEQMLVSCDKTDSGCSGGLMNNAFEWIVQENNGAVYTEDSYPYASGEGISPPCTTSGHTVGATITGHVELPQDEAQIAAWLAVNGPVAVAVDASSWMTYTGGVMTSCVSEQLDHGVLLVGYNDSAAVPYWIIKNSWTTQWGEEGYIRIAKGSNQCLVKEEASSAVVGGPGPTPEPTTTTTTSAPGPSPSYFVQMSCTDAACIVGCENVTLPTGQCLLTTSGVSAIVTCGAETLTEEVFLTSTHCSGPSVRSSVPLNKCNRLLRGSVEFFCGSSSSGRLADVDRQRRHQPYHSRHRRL", "test": "qHTS Assay for Promiscuous and Specific Inhibitors of Cruzain (without detergent); further: nearly all actives have a fitted effect of over 40% in size;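 on max response, negative = inhibition: plate controls were enzyme without inhibitor for no effect and buffer without enzyme for full effect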", "details": "purified cruzain, Z-FR-AMC fluorescence, no detergent", "in_short": "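Detergent-free condition (0.00005% Triton X-100) in acetate buffer pH 5.5 with DTT. 1.5 nM enzyme and compound were pre-mixed 15 min, then 2 uM Z-FR-AMC substrate added; reaction progress from fluorescence change between first and third reads (60 s).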", "values": [{"smiles": "Cc1cc(C(=O)COC(=O)CC2Sc3ccccc3NC2=O)c(C)n1-c1ccc2c(c1)OCO2", "note": "(centres undefined)", "Potency": "active: 25.1 µM"}, {"smiles": "Nc1nc(SCCc2ccccc2)c2[nH]cnc2n1", "max response, negative = inhibition": "inactive: -9.75%"}, {"smiles": "CCOC(=O)c1cccnc1SCC(=O)Nc1ccc(C)cc1C", "max response, negative = inhibition": "inactive: 4.59%"}, {"smiles": "CCOc1ccc(NC(=O)Cn2nnc(-c3ccccc3NC(=O)c3cccs3)n2)cc1", "Potency": "inconclusive: 39.8 µM [inhibitor, single point]"}, {"smiles": "Cc1ccc(NC(=O)CSc2nnc(-c3ccco3)c(-c3ccco3)n2)cc1", "Potency": "active: 10 µM"}, {"smiles": "CCOC(=O)Cn1c(=O)n(-c2ccccc2OC)c2nc(-c3cccc(F)c3)nc(C(N)=O)c21", "Potency": "inconclusive: 31.6 µM [activator, single point]"}, {"smiles": "O=C(Nc1ccc2oc(-c3ccccc3F)nc2c1)c1ncn[nH]1", "max response, negative = inhibition": "inactive: 19.5%"}, {"smiles": "CC(C)(C)c1ccc(-c2nc(SCCCOc3ccccc3)n3[nH]c(=O)cc3n2)cc1", "Potency": "active: 12.6 µM"}, {"smiles": "COc1ccccc1N1CCN(c2cc(=O)n(-c3ccc(Br)cc3)c(=O)[nH]2)CC1", "Potency": "inconclusive: 39.8 µM [inhibitor, single point]"}, {"smiles": "CNC(=S)N(Cc1ccc(OC)cc1)C1CC(=O)N(c2ccc(C(=O)OC)cc2)C1=O", "note": "(centres undefined)", "Potency": "inconclusive: 39.8 µM [inhibitor, single point]"}, {"smiles": "COCCn1cc(C(=S)N2CCOCC2)c2ccccc21", "max response, negative = inhibition": "inactive: -5%"}, {"smiles": "CCOc1ccc2[nH]c(=O)c(CN(Cc3nnnn3Cc3ccco3)C3CCCCC3)cc2c1", "Potency": "active: 10 µM"}, {"smiles": "COc1ccc(Cl)cc1N=Nc1ncc[nH]1", "Potency": "inconclusive: 39.8 µM [activator, single point]"}, {"smiles": "N#Cc1ccccc1Cn1cc(/C=C/[N+](=O)[O-])c2ccccc21", "Potency": "inconclusive: 31.6 µM [inhibitor, single point]"}, {"smiles": "Cc1c(-c2ccc(O)cc2)nn(-c2ccc(O)cc2)c1-c1ccc(OCCN2CCCCC2)cc1", "max response, negative = inhibition": "inactive: -0.333%"}, {"smiles": "COc1cccc(N2CCN(C(=O)CCc3c(C)nc4c(c3C)c(=O)n(C)c(=O)n4C)CC2)c1", "max response, negative = inhibition": "inactive: 2.45%"}, {"smiles": "CCOCc1nnc(NC(=O)CSc2ccc(C)cc2)s1", "max response, negative = inhibition": "inactive: 1.04%"}, {"smiles": "COc1cccc2c1Oc1ncccc1N(c1ccc(C(=O)NCc3ccccc3Cl)s1)C2", "Potency": "active: 25.1 µM"}, {"smiles": "O=C(CNc1cccc(C(F)(F)F)c1)N/N=C/c1cn(-c2ccccc2)nc1-c1ccccc1", "Potency": "inconclusive: 31.6 µM [inhibitor, single point]"}, {"smiles": "CCc1ccc(C2CC(=O)c3c([nH]c(C(=O)OCCOc4ccccc4)c3C)C2)cc1", "note": "(centres undefined)", "max response, negative = inhibition": "inactive: 3.08%"}, {"smiles": "Cc1ccn2c(Nc3ccc4c(c3)OCCO4)c(-c3cccs3)nc2c1", "Potency": "inconclusive: 25.1 µM [inhibitor, single point]"}, {"smiles": "Cc1ccc2onc(CNC(=O)Nc3cc(F)ccc3F)c2c1", "max response, negative = inhibition": "inactive: 9.34%"}, {"smiles": "CC(C)Cn1c(=O)c2ccccc2n2c(CCC(=O)N3CCN(c4ccccc4)CC3)nnc12", "max response, negative = inhibition": "inactive: 7.85%"}, {"smiles": "CCN(CC)CCNC(=O)c1cc2c(=O)n(C)c3ccccc3c2n1C", "max response, negative = inhibition": "inactive: 0.963%"}, {"smiles": "COc1ccc(NC(=O)Cn2c(=O)n(CCCC(=O)NCCc3ccc(C)cc3)c(=O)c3ccccc32)cc1Cl", "max response, negative = inhibition": "inactive: -5.01%"}, {"smiles": "COc1ccc(-c2nc(-c3ccc(Br)o3)no2)cc1OC", "Potency": "inconclusive: 39.8 µM [activator, single point]"}, {"smiles": "COc1ccc(N2C(=O)/C(=C/c3ccc([N+](=O)[O-])cc3)C=C2c2ccccc2)cc1", "Potency": "active: 15.8 µM"}, {"smiles": "COC(=O)C(NC(=O)CCc1c(C)nc2c(c(C)nn2-c2ccccc2)c1C)C(C)C", "note": "(centres undefined)", "Potency": "inconclusive: 31.6 µM [activator, single point]"}, {"smiles": "CCOc1ccc(OCC)c(NC(=O)CCc2nc3cccnc3n2-c2ccccc2)c1", "Potency": "inconclusive: 25.1 µM [activator, single point]"}, {"smiles": "O=C(NCC(c1ccc(Cl)cc1)N1CCCCC1)c1ccccc1F", "note": "(centres undefined)", "max response, negative = inhibition": "inactive: -1.68%"}, {"smiles": "COCC(C)NC(=O)CCSc1nc(-c2ccc(OC)cc2)cc(C(F)(F)F)n1", "note": "(centres undefined)", "Potency": "inconclusive: 39.8 µM [activator, single point]"}, {"smiles": "Cc1[nH]c2ccccc2c1C1(O)C(=O)N(Cc2ccccc2Cl)c2ccccc21", "note": "(centres undefined)", "Potency": "inconclusive: 31.6 µM [activator, single point]"}, {"smiles": "COc1ccc(OC)c(NC(=O)CSc2nnc(Cc3cccn3C)n2-c2ccc(F)cc2)c1", "Potency": "inconclusive: 31.6 µM [activator, single point]"}, {"smiles": "COc1ccc(NC(=O)Cn2c(=O)n(-c3cccc(C(F)(F)F)c3)c(=O)c3sccc32)cc1", "max response, negative = inhibition": "inactive: 2.01%"}, {"smiles": "Cc1nn(-c2ccc(N3CCCC3)nn2)c(C)c1CCC(=O)N1CCN(c2ccccc2)CC1", "max response, negative = inhibition": "inactive: -15.4%"}, {"smiles": "O=C(N/N=C/c1cn(-c2cccs2)nc1-c1ccccc1)c1ccccc1Br", "Potency": "inconclusive: 39.8 µM [inhibitor, single point]"}, {"smiles": "CSc1nnc(-c2ccccc2N=Cc2c(C)[nH]n(-c3ccc4ccccc4c3)c2=O)c(=O)[nH]1", "Potency": "inconclusive: 39.8 µM [activator, single point]"}, {"smiles": "NC(=O)c1ccc(NC(=O)COC(=O)c2c3c(nc4ccccc24)/C(=C\\c2cccs2)CCC3)cc1", "Potency": "inconclusive: 15.8 µM [inhibitor, single point]"}, {"smiles": "CCOC(=O)c1ccc(N2C(=O)c3n[nH]c(C)c3C2c2ccc(OCC)cc2)cc1", "note": "(centres undefined)", "max response, negative = inhibition": "inactive: 3.12%"}, {"smiles": "O=C(CS(=O)(=O)c1cn(Cc2ccc(Cl)cc2)c2ccccc12)N1CCCC1", "Potency": "inconclusive: 31.6 µM [activator, single point]"}, {"smiles": "CC(=O)c1c(C)n([O-])c2ccc(C)cc2[n+]1=O", "Potency": "active: 1.58 µM"}, {"smiles": "CCCSc1nnc2[nH]c(=O)cc(C)n12", "max response, negative = inhibition": "inactive: 24.4%"}, {"smiles": "CCOC(=O)Cn1c(=O)n(CC2CCCO2)c2nc(-c3ccc(C(C)C)cc3)nc(C(N)=O)c21", "note": "(centres undefined)", "max response, negative = inhibition": "inactive: -0.523%"}, {"smiles": "COc1ccccc1N1CCN(C(=O)c2cc(S(=O)(=O)N3CCC(C)CC3)cn2C)CC1", "Potency": "inconclusive: 31.6 µM [activator, single point]"}, {"smiles": "COc1ccc(C(=O)Cn2nnc(-c3ccc(N4CCOCC4)cc3)n2)cc1OC", "Potency": "inconclusive: 39.8 µM [activator, single point]"}, {"smiles": "CS(=O)(=O)N(CC(=O)N1CCCC1)c1ccc(OCc2ccccc2)cc1", "Potency": "inconclusive: 25.1 µM [activator, single point]"}, {"smiles": "O=S(=O)(Nc1cccc(-c2cn3cccnc3n2)c1)c1ccccc1", "Potency": "inconclusive: 1 µM [inhibitor, single point]"}, {"smiles": "COc1ccc(-n2c(=O)c3ccccc3n(Cc3cccc(C)c3)c2=O)cc1", "max response, negative = inhibition": "inactive: 4.6%"}, {"smiles": "O=C(CSc1nnc(CCc2ccccc2)n1-c1ccc(Cl)cc1)c1ccccc1", "Potency": "inconclusive: 39.8 µM [activator, single point]"}, {"smiles": "CCOc1ccc(CCNC(=O)c2sc3ncccc3c2-n2cccc2)cc1OCC", "Potency": "inconclusive: 39.8 µM [activator, single point]"}, {"smiles": "COc1ccc(Cl)cc1C(=O)NNC(=S)NC(=O)c1cc(-c2ccccc2)nc2ccccc12", "Potency": "active: 3.16 µM"}, {"smiles": "CCOc1ccc(OCC)c(NC(=O)c2ccc(-c3ccccc3)s2)c1", "max response, negative = inhibition": "inactive: -5.03%"}, {"smiles": "Cc1ccc(NC(=O)NCc2cccn2Cc2ccccc2)c(C)c1", "max response, negative = inhibition": "inactive: -7.23%"}, {"smiles": "Cc1ccc(Cl)cc1N1CCN(C(=O)CCNS(=O)(=O)c2ccc3c(c2)CCN3C(=O)C2CC2)CC1", "Potency": "inconclusive: 39.8 µM [activator, single point]"}, {"smiles": "CCOC(=O)c1scc(-c2ccc(C)cc2)c1S(=O)(=O)N1CCN(c2ccccc2F)CC1", "max response, negative = inhibition": "inactive: -11.6%"}, {"smiles": "O=C(Cn1ncc2c3ccccc3n(Cc3ccccc3)c2c1=O)N1CCN(c2ncccn2)CC1", "Potency": "inconclusive: 39.8 µM [activator, single point]"}, {"smiles": "Cc1cccc(NC(=O)C(=O)NCC(c2cccnc2)N2CCc3ccccc3C2)c1C", "note": "(centres undefined)", "max response, negative = inhibition": "inactive: -18.3%"}, {"smiles": "CN(C)CCCN=c1c2ccccc2n(C)c2[nH]c(=O)n(C)c(=O)c12", "max response, negative = inhibition": "inactive: 0.153%"}, {"smiles": "Cc1ccc(-c2cn(-c3cccc(Cl)c3)c(S(=O)(=O)CC(=O)Nc3cccc(C)c3)n2)cc1", "Potency": "active: 15.8 µM"}, {"smiles": "CC1=NN2C(=N)/C(=C\\c3ccc(SCc4ccccc4)o3)C(=O)N=C2S1", "Potency": "active: 7.94 µM"}, {"smiles": "COc1ccc(CCNc2nc(-c3ccc(OC)c(OC)c3)cc(C(F)(F)F)n2)cc1OC", "Potency": "inconclusive: 12.6 µM [activator, partial curve]"}, {"smiles": "CCSc1nnc(NC(=O)c2nn(C(C)C)c(=O)c3ccccc23)s1", "Potency": "inconclusive: 31.6 µM [activator, single point]"}, {"smiles": "Cc1ccccc1CCN(C(=O)Cn1nnc2ccccc21)C(C(=O)NCC1CCCO1)c1nc2ccccc2n1C", "note": "(centres undefined)", "Potency": "inconclusive: 3.98 µM [activator, single point]"}, {"smiles": "Cc1cccc(N2CCN(C(=O)CCNS(=O)(=O)c3ccc4c(c3)CCC(=O)N4)CC2)c1C", "Potency": "inconclusive: 39.8 µM [activator, single point]"}, {"smiles": "NC(=O)CCCCn1ccc(NC(N)=NCC(F)(F)F)n1", "Potency": "inconclusive: 39.8 µM [activator, single point]"}, {"smiles": "CC(C)Cn1c(=O)c2ccccc2n2c(SCC(=O)N3c4ccccc4CC3C)nnc12", "note": "(centres undefined)", "Potency": "inconclusive: 31.6 µM [activator, single point]"}, {"smiles": "CCC(=O)NC(=S)Nc1ccc(S(=O)(=O)NC(C)=O)cc1", "max response, negative = inhibition": "inactive: -3.4%"}, {"smiles": "O=C(Oc1ccc2c(=O)c(Oc3ccc4ccccc4c3)coc2c1)c1cncc(Br)c1", "Potency": "active: 3.16 µM"}, {"smiles": "CCc1ccccc1NC(=O)CN1C(=O)c2ccccc2Sc2ncccc21", "Potency": "inconclusive: 39.8 µM [activator, single point]"}]}]}
